Measurements published in PubChem BioAssay AID588579 (National Center for Advancing Translational Sciences (NCATS), 2011).
In all, about 400,000 compounds went through this assay and about 2,200 (0.55%) were called active. The shares of active, inactive and inconclusive entries below differ from those in the screen. Calls come from the whole dose curve; as a rule, active = well fitted inhibition curve with a large enough effect; inconclusive = small, poorly fitted or top-dose-only effect, or another doubt; inactive = no such curve, though single readings can be large or run the other way. A potency beside an inconclusive call is a rough fit, not a confirmed value.

Biological target: DNA polymerase kappa (Homo sapiens) (UniProt Q9UBT6)
Assay: qHTS for Inhibitors of Polymerase Kappa
Conditions: purified Pol kappa, fluorescent DNA synthesis assay, 10 min; series mostly up to 107 µM; activity, negative = inhibition: at the top concentration
In short: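 Activity was followed as the change in fluorescence between reads at 0 and 10 min after starting the reaction with 50 nM substrate. Beforehand, 10 nM polymerase had been preincubated with compound for 15 min at room temperature.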
% is set by controls: 0 for no effect and ±100 for the full control effect; potency is the fitted concentration of half-maximal effect; tags give direction and shape of the fitted curve.

Sequence of UniProt Q9UBT6 (Q9UBT6 whole entry, looked up): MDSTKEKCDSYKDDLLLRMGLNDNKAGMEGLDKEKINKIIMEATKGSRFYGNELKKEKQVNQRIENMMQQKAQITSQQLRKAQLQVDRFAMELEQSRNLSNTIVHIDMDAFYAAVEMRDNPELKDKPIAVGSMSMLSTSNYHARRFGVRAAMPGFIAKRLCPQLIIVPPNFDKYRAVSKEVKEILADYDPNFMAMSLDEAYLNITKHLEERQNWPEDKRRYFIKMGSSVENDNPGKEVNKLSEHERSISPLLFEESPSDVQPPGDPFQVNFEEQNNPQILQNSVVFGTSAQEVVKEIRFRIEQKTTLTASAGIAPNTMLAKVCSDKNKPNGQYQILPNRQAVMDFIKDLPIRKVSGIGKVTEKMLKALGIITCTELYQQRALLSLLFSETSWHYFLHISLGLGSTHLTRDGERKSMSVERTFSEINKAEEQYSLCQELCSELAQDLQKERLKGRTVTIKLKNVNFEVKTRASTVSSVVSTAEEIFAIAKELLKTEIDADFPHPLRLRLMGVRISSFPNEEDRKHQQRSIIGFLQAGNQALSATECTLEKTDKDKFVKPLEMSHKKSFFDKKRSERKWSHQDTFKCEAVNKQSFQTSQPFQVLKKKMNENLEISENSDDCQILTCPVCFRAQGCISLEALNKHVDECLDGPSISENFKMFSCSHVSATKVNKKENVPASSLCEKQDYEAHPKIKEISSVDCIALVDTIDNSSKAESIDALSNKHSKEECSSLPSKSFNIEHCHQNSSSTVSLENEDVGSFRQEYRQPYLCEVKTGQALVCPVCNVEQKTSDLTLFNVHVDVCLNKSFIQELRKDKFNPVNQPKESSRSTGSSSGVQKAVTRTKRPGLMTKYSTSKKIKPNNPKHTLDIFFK

Potency, inconclusive:
N#CC1=C(N)NC(SCc2ccc(Cl)cc2)=C(C#N)C12CCCCC2 89.1 µM [inhibitor, partial curve, poor fit], COc1ccccc1N1CCN(C(c2ccccc2)c2nnnn2Cc2ccccc2)CC1 (configuration not stated) 15.8 µM [inhibitor, partial curve, poor fit], CCn1c(SCC(=O)N/N=C/C(C)=C\c2ccco2)nnc1-c1ccccc1 89.1 µM [inhibitor, single point], O=C(/C=C/c1ccco1)Nc1ccccc1C(=O)Nc1cccc(C(=O)O)c1 56.2 µM [inhibitor, partial curve, poor fit], Cc1ccc(CNC(=O)c2nnn(CC(=O)Nc3cc(C)cc(C)c3)c2N)cc1 100 µM [inhibitor, partial curve, poor fit], CCc1ccc(NC(=O)CCc2nc3sc4c(c3c(=O)[nH]2)CCCC4)cc1 89.1 µM [inhibitor, single point], COc1cc(/C=C2/SC(=Nc3ccc(O)cc3)NC2=O)ccc1O 89.1 µM [inhibitor, single point], CC(O)CN1CCN(C(=O)CN2C(=O)NC(c3ccccc3)(c3ccccc3)C2=O)CC1 (configuration not stated) 89.1 µM [inhibitor, partial curve, poor fit], CCCCn1c(=NC(C)=O)c(C#N)cc2c(=O)n3cccc(C)c3nc21 100 µM [inhibitor, single point], CC(OC(=O)c1ccc(-n2cnnn2)cc1)C(=O)Nc1ccc(F)c(F)c1F (configuration not stated) 79.4 µM [inhibitor, single point], O=C(Cn1nc(Cc2cccnc2)c2ccccc2c1=O)Nc1cccc(C(F)(F)F)c1 89.1 µM [inhibitor, single point], CCOc1cc(C(=O)OCC(=O)Nc2cc(C)on2)cc(OCC)c1OCC 89.1 µM [inhibitor, single point], c1ccc(OCc2nnc3sc(C4COc5ccccc5O4)nn23)cc1 (configuration not stated) 70.8 µM [inhibitor, single point], Cc1ccc(S(=O)(=O)/N=C2/NC(=O)/C(=C/c3cc([N+](=O)[O-])ccc3O)S2)cc1 89.1 µM [inhibitor, single point], Cc1cc(O)cc2c1C(=O)/C(=C/c1ccco1)O2 79.4 µM [inhibitor, partial curve], COc1cc(OC)c(-c2c3cc(O)c(=O)cc-3oc3cc(O)c(O)cc23)cc1OC 22.4 µM [inhibitor, full curve, poor fit], O=C1C(=Cc2ccc(Br)o2)C(=O)c2ccccc21 6.31 µM [inhibitor, full curve, poor fit], COc1ccc2cc(C(=O)Nc3ccccc3)sc(=O)c2c1OC 89.1 µM [inhibitor, single point], O=C(O)CCc1ccc(-c2cccs2)n1NC(=O)c1ccc(O)cc1 89.1 µM [inhibitor, single point], CCCCCC(O)c1cccc(OCc2ccc3ccccc3n2)c1 (configuration not stated) 18.9 µM [inhibitor, partial curve, poor fit], C=CCn1nnc2sc3c(c2c1=O)CCC(C)C3 (configuration not stated) 89.1 µM [inhibitor, partial curve, poor fit], CC(CNc1ccccc1O)C(=O)O (configuration not stated) 100 µM [inhibitor, single point], CSc1cccc(N/C(=N/S(=O)(=O)c2ccccc2)NN)c1 89.1 µM [inhibitor, single point], O=C(Cc1c(F)cccc1Cl)N1CCN(C(=O)c2ccco2)CC1 89.1 µM [inhibitor, single point], O=C(c1cccc(F)c1)N1CCC2(CC1)CN(C(c1ccccc1)c1ccccc1)C2 35.5 µM [inhibitor, partial curve, poor fit], CCN(CC)c1ccc(NC(=O)CSc2ccsc2[N+](=O)[O-])c(C)c1 100 µM [inhibitor, single point], Cc1cc(O)c(C(C)C)cc1Cl 37.7 µM [inhibitor, partial curve, poor fit], O=C(COC(=O)c1ccc(F)c(S(=O)(=O)N2CCOCC2)c1)NCCc1ccccc1 89.1 µM [inhibitor, single point], CNC(=O)COc1ccc(Nc2nnc(-c3ccc(C)c(S(=O)(=O)NC(C)(C)C)c3)c3ccccc23)cc1 79.4 µM [inhibitor, partial curve, poor fit], O=C(Cn1cnc2scc(-c3ccccc3)c2c1=O)NCc1ccco1 79.4 µM [inhibitor, single point], Cc1cccc([C@H]2[C@@H]3C=CCC[C@@H]3C(=O)N2Cc2ccccc2)c1 63.1 µM [inhibitor, partial curve, poor fit], CCc1ccc(NC(=O)CN(CC(=O)Nc2ccc(CC)cc2)CC(C)O)cc1 (configuration not stated) 79.4 µM [inhibitor, partial curve, poor fit], Cc1cc(C=C2C(=O)CCCC2=O)c(C)n1-c1ccccc1 100 µM [inhibitor, single point], O=C1c2cc(O)c(O)cc2S(=O)(=O)C1c1ccccc1 (configuration not stated) 25.1 µM [inhibitor, full curve], C[c-]1[c-](C)[c-](C)[c-](C)[c-]1C.[Fe].c1cc2nccc(N3CCCC3)[c-]2c1 (configuration not stated) 63.1 µM [inhibitor, partial curve, poor fit]

Potency, active:
O=c1nc2s/c(=C\c3ccco3)c(=O)n2nc1Cc1ccccc1 31.6 µM, O=c1c2c([nH]c3ccccc13)C(=C1CCCC1)CC2 39.8 µM, COc1cc(N2C(=O)C=CC2=O)ccc1N1C(=O)C=CC1=O 39.8 µM, Cn1c2ccccc2c2cc(/C=N/NC(=O)c3cc(O)ccc3O)ccc21 50.1 µM, O=C(O)CSc1cc(C(=O)c2ccccc2O)cn2c(=O)c3c4c(sc3nc12)CCCC4 44.7 µM, CCC1=NN2C(=N)/C(=C\c3ccc(OCc4cc(=O)n5nc(CC)sc5n4)c(OC)c3)C(=O)N=C2S1 31.6 µM, Oc1cccc(C=NCc2ccccc2)c1O 14.1 µM, O=C1CC(c2ccco2)CC(O)=C1C=Nc1cc(Cl)cc(Cl)c1 (configuration not stated) 70.8 µM, Cc1cc(-c2ccccc2)nc2c(Br)c(C(=O)O)nn12 79.4 µM, CCN(CCCNC(=O)c1cc2cc3ccc(OC)cc3nc2s1)c1ccccc1 79.4 µM, CCc1ccc(NC(=O)c2ccc3c(c2)C(=O)N(Cc2ccco2)C3=O)cc1 50.1 µM, COc1ccc(S(=O)(=O)N2CCN(C(=O)c3cc4c(s3)CCC4)CC2)cc1 28.2 µM, O=C(Nc1cc([N+](=O)[O-])ccc1O)c1ccc2c(c1)C(=O)N(Cc1ccco1)C2=O 50.1 µM

activity, negative = inhibition, inactive:
CC(C)(C)OC(=O)N1CCC(c2c(C(=O)NCc3ccco3)cnn2-c2ccc(F)cc2)CC1 -16.4%, Cc1ccccc1-c1nnn(CC(=O)N(C)CC(=O)Nc2ccccc2C(F)(F)F)n1 -1.85%, COc1ccc(-n2c(SCc3ccccc3F)nc3c([nH]c4ccccc43)c2=O)cc1 -1.72% [at 60.1 µM], Cc1cc2ccccc2c(=O)n1CC(=O)NCC(=O)N(C)C1CCCCC1 -3.34%, Cc1ccc(OCC(=O)Nc2ccc(CN3CCCCC3)cc2)c(C)c1 -14.6%, Cc1c(OCC(=O)NC(Cc2c[nH]c3ccc(O)cc23)C(=O)O)ccc2c3c(c(=O)oc12)CCC3 (configuration not stated) -18.7%, COc1cccc(OC)c1C(=O)Nc1cccc(-c2nc3cc(C)cc(C)c3o2)c1 1.96%, Cc1nc(-c2ccc(F)cc2)sc1CCNC(=O)c1ccco1 0.658% [at 60.1 µM], Cc1ccc(OCC(=O)N2C(C)CCCC2C)c([N+](=O)[O-])n1 (configuration not stated) -12.6%, CCCCn1c(/C=C/c2ccco2)nc2ccccc21 -9.81%, COc1ccc(CCn2c3c(c(=O)[nH]c2=O)C(NC(=O)c2ccccc2)(C(F)(F)F)C(=O)N3)cc1OC (configuration not stated) -5.04%, COc1ccc(CNC(=O)CCCc2cn(C)c3ccccc23)c(OC)c1 -0.865% [at 60.1 µM], Cn1nnnc1N=N/C(=N/Nc1ccccc1)c1ccccc1 5.88%, CC1=C(C(=O)Nc2ccccc2C)C(c2cccnc2)n2nc(SCc3ccccc3F)nc2N1 (configuration not stated) 1.61%, Cn1c(=O)[nH]c2cc(-c3noc(-c4ccc(F)cc4)n3)ccc21 -4.2% [at 60.1 µM], Cc1ccc(C(c2sc3nc(-c4ccco4)nn3c2O)N2CCN(Cc3ccccc3)CC2)cc1 (configuration not stated) -3.52% [at 60.1 µM], COc1ccc(N(Cc2cc3cccc(C)c3[nH]c2=O)S(=O)(=O)c2ccc(OC)cc2)cc1 -6.8%, O=C(N/N=C/c1ccco1)c1cc(Br)ccc1OCc1ccccc1 4.06%, Oc1ccccc1C=NC1=NN(c2cccc(C(F)(F)F)c2)CC1 -10.5%, CCN(CC)c1ccc(NC(=O)CSc2nc(C)cc(=O)[nH]2)cc1 -17.4%, CC(C)NC(=O)c1ccc(N(Cc2ccc(Cl)cc2)S(C)(=O)=O)cc1 -7.32%, CCOc1ccc(C(=O)N2CCN(Cc3cc(=O)n4nc(-c5ccccc5Cl)sc4n3)CC2)cc1 -12.5% [at 60.1 µM], O=c1c2ccccc2nc2n1CCCCC2 0.694%, Cc1ccc2oc(C(=O)Nc3ccc(S(=O)(=O)Nc4ncccn4)cc3)cc(=O)c2c1 14.9%
